In all, about 150,000 compounds went through this assay and about 540 (0.36%) showed an effect of 50% or more. The list shows a part of the results.
system: Plasmodium falciparum; test: Primary screen in NF54 nanoGlo assay, in single point, at 2uM, 72h; a lower Z score goes with more inhibition; format: functional, Erythrocyte; conditions: timepoint 72 hour

Row | Structure (SMILES) | % Inhibition [%] | Z score
1 | CC[C@H](C)NC(=O)CN1CCC(c2ocnc2C(=O)OC)CC1 | -14 | 2.12
2 | C[C@@H](CNC(=O)Nc1cccnc1)N(C)Cc1ccccc1 | -5 | 0.69
3 | Cc1n[nH]c(C2CN(C(C)c3ccncc3)CCO2)n1 (stereo not given) | -9 | 1.26
4 | Cc1ccc(N2C(=O)C[C@H](N(C(=O)c3cccs3)c3ccc(C)cc3)C2=O)cc1 | -2 | 0.27
5 | Cc1nsc(N(C)[C@H](CO)CC(C)(C)C)n1 | -8 | 1.29
6 | CCC(CC)(CC(=O)O)NC(=O)c1ccc2c(c1)CCOC2 | -2 | 0.13
7 | O=S(=O)(Nc1ccccc1O)c1cc(-c2nnc(-c3ccccc3)o2)ccc1F | 5 | -0.77
8 | CO[C@@H](C)c1noc(CN(C)C(=O)c2cc(C(C)C)n(C)n2)n1 | 2 | -0.36
9 | CCC(C)(C)NC(=O)[C@H]1C[C@H](O)CN1C(C)=O | 5 | -0.84
10 | CN(C)c1ncccc1NC(=O)CCN1CCCS1(=O)=O | -16 | 1.73
11 | CN(C[C@H]1CCCCO1)C(=O)Cc1ccsc1 | -19 | 1.66
12 | Cc1nnc(-c2cccc(NC(=O)C3CCN(C(=O)c4snnc4C)CC3)c2)s1 | -15 | 2.78
13 | Cc1nnc(-c2cncc(Br)c2)o1 | -6 | 0.86
14 | C[C@H]1Cc2ccccc2N1C(=O)c1cc(O)nc2ccccc12 | -6 | 1.13
15 | OCC[C@H]1CN(Cc2cccc3cccnc23)CCN1CC1CCCCC1 | -4 | 0.42
16 | Cc1cc(S(=O)(=O)N2CC(Oc3nccs3)C2)ccc1F | 6 | -1.01
17 | O=C(Cc1noc2ccccc12)NC1CCCCCC1 | -5 | 0.99
18 | Cc1c(C2(c3c(C)n(C)c4ccccc34)C(=O)N(C)c3ccccc32)c2ccccc2n1C | -4 | 0.58
19 | C[C@@H](c1ccccc1)n1nccc1NC(=O)NCCCN1CCCC1=O | -5 | 0.93
20 | CCN1CCC[C@H](NCCc2nc(C)c(C)s2)C1 | -15 | 1.45
21 | O=C(c1ccc[n+]([O-])c1)N1Cc2ccccc2O[C@H](c2ccccc2)C1 | -10 | 1.76
22 | COCCN1CC2(CCN(S(=O)(=O)c3cc(C)c(C)cc3C)CC2)[C@H]1c1ccncc1 | -8 | 1.4

Row | Structure (SMILES) | % Inhibition [%] | Z score
23 | CC(C)OCCN(C)c1nc2ccccn2c1C#N | 1 | -0.07
24 | COCCNc1nc(-c2c(C)noc2C)cc(-c2c(C)nn(C)c2C)n1 | -8 | 1.18
25 | CNC(=O)c1ccnc(N2CC[C@@]3(CCCN(CCc4ccccc4)C3)C2)c1 | 12 | -1.69
26 | O=C(NCCc1ccccc1F)c1ccccc1N1C(=O)[C@@H]2Cc3c([nH]c4ccccc34)C(c3ccccc3)N2C1=O (stereo not given in full) | -1 | 0.09
27 | O=C1NC(=O)[C@H](Cc2nc(-c3ccc(-c4ccccc4)cc3)no2)N1 | -3 | 0.42
28 | C1CCn2c(nnc2CC2CCCC2)C1 | -5 | 0.84
29 | CCC(=O)N(Cc1cccc(F)c1)Cc1cc(NC(=O)C2CCC2)ccc1N(C)C | -3 | 0.4
30 | Cc1nc2cc(-c3ncnn3CC(C)(C)O)ccc2s1 | -5 | 0.45
31 | CC(=O)N1CCc2cc(Br)c(S(=O)(=O)N(C)Cc3ccco3)cc21 | 2 | -0.26
32 | Cc1cc(-c2cc(C(=O)NC(C)C)ccn2)[nH]n1 | -6 | 1.18
33 | COc1ccc(CC(=O)N[C@H]2CC[C@H](Oc3nccnc3C#N)CC2)cc1 | 14 | -1.6
34 | Cc1cc(-c2nc(C(=O)NCCN(C)CC(F)(F)F)co2)ccn1 | 2 | -0.26
35 | CCc1nnc2n1C[C@@H](CNc1nc3ccccc3s1)CC2 | -2 | 0.33
36 | CN(Cc1nc(-c2ccco2)no1)[C@H]1CS(=O)(=O)c2ccc(Cl)cc21 | -5 | 0.69
37 | CNC(=O)C1(NC(=O)COc2ccc3ccccc3c2)CCCC1 | -2 | 0.26
38 | Cc1nc(C#N)c(N)nc1NCC1(O)CCCCCC1 | 3 | -0.42
39 | C[C@H](NC(=O)C1=NCCN1)c1ccc(F)cc1 | -10 | 0.93
40 | O=C(Nc1ccc2c(c1)OCCCO2)C1C2CCC(C2)N1C(=O)c1ccccc1 (stereo not given) | 15 | -1.76
41 | COCCNC(=O)c1nnn2c1CO[C@H](c1ccccc1)C2 | -5 | 0.53
42 | CCOCCOc1nc(-c2ccccc2F)n(-c2ccc(NC(=O)c3ccc(F)cc3)cc2)n1 | -16 | 1.73
43 | Cc1cc(CCC(=O)Nc2nnn[nH]2)ccc1Br | 36 | -0.97
44 | COCCN1CN(C(=O)Nc2ccnc(C)n2)CC1=O | 34 | -3.82

Row | Structure (SMILES) | % Inhibition [%] | Z score
45 | O=C(c1n[nH]c2ccccc12)N1CCC(Cn2cnc(C3CC3)cc2=O)CC1 | -7 | 1.04
46 | O=C(CC1CCN(S(=O)(=O)c2cccs2)CC1)NC1CCCCC1 | -15 | 1.96
47 | CN(Cc1ccccc1)C(=O)c1coc(CN(Cc2ccc3c(c2)OCO3)Cc2ccc(Cl)cc2Cl)n1 | 4 | -0.7
48 | O=C(NC[C@@H](c1cccs1)N1CCCCC1)c1ccccc1F | -15 | 2.8
49 | O=c1c2cc(Cl)ccc2ncn1C[C@H](O)COCc1ccccc1 | -10 | 1.65
50 | CCN(C(=O)c1cnn(C2CC2)c1)c1cccc(C)c1F | -2 | 0.33
51 | CN(Cc1ncon1)C(=O)c1cc(Cl)cn1C | 3 | -0.51
52 | COc1ccccc1NC(=O)[C@H]1CCCN(c2nc3c(s2)c(C)nn3-c2cccc(F)c2)C1 | -11 | 1.44
53 | O=S(=O)(c1ccc2c(c1)OCCO2)N1CCC[C@H](c2nccs2)C1 | -6 | 0.68
54 | O=C(Cc1cscn1)Nc1cc(S(=O)(=O)N2CCOCC2)ccc1F | -10 | 0.94
55 | c1ccc2c(c1)C[C@@H](c1nnc(NCc3cscn3)o1)O2 | -6 | 0.96
56 | CC1(C)CN(C(C(=O)O)c2ccccc2)CC(COc2ccccc2)O1 (stereo not given) | 1 | -0.14
57 | COCC(C)(C)N(C)C(=O)c1cc(C)nc(C(F)(F)F)n1 | -1 | 0.08
58 | C[C@@H](c1ccccn1)N(C)Cc1cccnc1N | 9 | -1.13
59 | CCn1cncc1S(=O)(=O)N1CCC[C@H](C)C1 | -8 | 0.89
60 | CC1=NS(=O)(=O)N(C)C=C1C(=O)OCc1ccc(F)c(F)c1 | 7 | -0.62
61 | Cc1nnc(CN(C)C[C@H]2CCN(c3ccccc3)C2)s1 | -1 | 0.2
62 | N#CCc1ccc(NCc2csc(C3CC3)n2)cc1 | -7 | 0.74
63 | O=C(Nc1ccon1)C1CCN(S(=O)(=O)c2ccc(Br)cc2)CC1 | -14 | 2.37
64 | CCc1ccccc1CN1C[C@@H]2CC[C@H]1CN(C(=O)c1ccccc1)C2 | -12 | 2
65 | Cc1ccc(S(=O)(=O)C(=O)Nc2sc3c(c2C(N)=O)CCCCC3)cc1 | -1 | 0.11
66 | O=C(CO)Nc1ccc(Cl)cc1F | -12 | 1.41

Row | Structure (SMILES) | % Inhibition [%] | Z score
67 | COc1ccc(NC(=O)Cc2nnc(Nc3ccccc3)s2)cc1OC | -15 | 1.87
68 | Cn1ncc(CNC(=O)N[C@H]2CCOCC23CCCC3)n1 | 0 | -0.06
69 | Cc1ccc(NC(C)Cc2ccno2)c(OCC2CCCO2)c1 (stereo not given) | 13 | -1.71
70 | O=C1NCCN1CC1CCN(Cc2ncnn2-c2ccccc2)CC1 | -10 | 1.49
71 | Cc1ccc(C)c(S(=O)(=O)NCC(=O)N2CC(Oc3cc(C)n(C4CC4)c(=O)c3)C2)c1 | -17 | 1.89
72 | CC(NC(=O)CC1CCCCC1)C(=O)NC1C2CCC(C2)C1C(N)=O (stereo not given) | -1 | 0.16
73 | CN1CCC(NC(=O)c2n[nH]c3c2CN(C(=O)c2ccc(C(F)(F)F)cc2)CC3)CC1 | 5 | -0.84
74 | CC[C@@H](C(=O)Nc1c(C)cc(C)cc1C)n1cnc2onc(-c3ccc(Cl)cc3)c2c1=O | 11 | -1.61
75 | Cc1occc1NC(=O)Nc1ccccc1CO | 8 | -0.89
76 | O=C(CCn1ccc2ccccc21)N1CCc2nc[nH]c2C1 | -6 | 0.82
77 | COc1ccc(-c2nc([C@H]3CC(=O)N(c4ccc(Cl)cc4)C3)no2)cc1OC | -17 | 1.53
78 | O=C(N[C@@]1(CCO)CCOC1)c1ccc(C(F)F)c(F)c1 | -7 | 1.17
79 | COCc1c(C(=O)N2CCC(N3CCCCC3)CC2)cnn1-c1ncc(C)c(-c2cccs2)n1 | -7 | 0.95
80 | CN(Cc1csc(-c2cccs2)n1)C(=O)[C@@H](N)Cc1c[nH]cn1 | -2 | 0.47
81 | CCCN1CCN(CCCNC(=O)[C@H](C)n2nc(C)c3nn(-c4ccccc4)c(C)c3c2=O)CC1 | -2 | 0.29
82 | C=CCN1CN=C(NS(=O)(=O)c2ccc(C)cc2)NC1 | 5 | -0.71
83 | O=C(O)C1(CCCc2ccccc2)CCN(C[C@H]2CCOC2)CC1 | -9 | 1.67
84 | CC1CCC(O)C(C2CCCN2C(=O)C2CC=CC2)C1 (stereo not given) | -11 | 1.07
85 | Cc1occc1C(=O)NC1CCCCC1 | -5 | 0.78

— ChEMBL document CHEMBL4888484, “Replenishing the malaria drug discovery pipeline: Screening and hit evaluation of the MMV Hit Generation Library 1 (HGL1) against asexual blood stage Plasmodium falciparum ,using a nano luciferase reporter read-out” (2022)
